# In all, about 200,000 compounds went through this assay and about 10 (0.005%) were called active. Inconclusive results, whose numbers are uncertain, are shown with a selection of clear calls. Calls come from the whole dose curve; as a rule, active = well fitted inhibition curve with a large enough effect; inconclusive = small, poorly fitted or top-dose-only effect, or effect the other way, or another doubt; inactive = no such curve, though single readings can be large or run the other way. Where the call is inconclusive, the potency comes from a doubtful curve fit.
# Molecular target: Lysosomal alpha-glucosidase (Homo sapiens) (UniProt P10253)
# Assay: qHTS Assay for Inhibitors of Human alpha-Glucosidase as a Potential Chaperone Treatment of Pompe Disease;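 for activity change, negative = inhibition: plate controls were uninhibited enzyme wells for no effect and no-enzyme background for full effect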
# Conditions: purified human GAA, 4-MU-alpha-glucoside fluorescence; activity change, negative = inhibition: at 76.9 µM (top of the series) unless noted
# In short: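 Activity normalized between no-enzyme (basal) and enzyme-only wells. Conditions: 4 nM human enzyme, 400 uM fluorogenic substrate, citrate/phosphate pH 5.0 with Tween-20, 20 min room temperature, compounds up to 77 uM.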
# Potency is the fitted concentration of half-maximal effect; tags give direction and shape of the fitted curve.
Compound,Potency,"activity change, negative = inhibition"
COc1cccc(N2CCN(C(=O)Nc3ccccc3Cl)CC2)c1,"inconclusive: 5.01 µM [inhibitor, single point]",–
C/C(=N\N=C(/N)SC1CC(=O)N(c2cccc(Cl)c2)C1=O)c1cccs1 (stereo not drawn),–,inconclusive: -15.4% [inhibitor]
O=C(CCCNS(=O)(=O)c1ccc(Br)cc1)N1CC[C@@]2(O)CCCC[C@H]2C1,–,inconclusive: -16.2% [inhibitor]
Cc1cc(NC(=O)CSc2nnc(-c3ccccc3)c(-c3ccccc3)n2)no1,"inconclusive: 11.2 µM [inhibitor, single point]",–
Cc1ccc(S(=O)(=O)Nc2ccc(O)c3ncccc23)cc1,"inconclusive: 56.2 µM [inhibitor, single point]",–
c1ccc(CN2CN=C(Nc3nc4ccccc4s3)NC2)cc1,"inconclusive: 50.1 µM [inhibitor, single point]",–
O=C(CN1CCN(c2ccc(O)cc2)CC1)NC(=O)NCc1ccco1,inactive,–
CC(=O)N/N=C/c1cc(C(C)(C)C)cc(/C=N/NC(C)=O)c1O,–,inconclusive: 8.47% [activator]
COc1ccc(S(=O)(=O)N2CCC(C(=O)Nc3ccccc3C)CC2)c2cccnc12,"inconclusive: 22.4 µM [inhibitor, partial curve]",–
CCOc1ccc(C2NC(=O)NC(C)=C2C(=O)OC)cc1C (stereo not drawn),"inconclusive: 56.2 µM [inhibitor, partial curve, poor fit]",–
O=C(Cc1csc(Nc2nc(=S)[nH]c3ccccc23)n1)NCc1ccc(Cl)cc1,"inconclusive: 8.91 µM [activator, full curve, poor fit]",–
CC(C)C(NC(=O)OCc1ccccc1)C(=O)OCC(=O)NC1CC1 (stereo not drawn),–,inconclusive: -18.7% [inhibitor]
CCOc1ccc(/C=N/n2nnnc2N)cc1O,"inconclusive: 1.12 µM [inhibitor, single point]",–
CCOC(=O)C1CCN(S(=O)(=O)c2ccc(C(C)(C)C)cc2)CC1,–,inconclusive: 15.2% [activator]
O=C(CCSCc1ccccc1)Nc1ccc2c(c1)OCCO2,"inconclusive: 1.12 µM [inhibitor, full curve]",–
Cc1cc(Cl)ccc1C(=O)C1CCCN(C(=O)c2cc(C(C)C)no2)C1 (stereo not drawn),"inconclusive: 17.8 µM [inhibitor, partial curve, poor fit]",–
COc1ccccc1N/C=C(\C#N)c1nc2ccccc2[nH]1,"inconclusive: 0.178 µM [activator, full curve, poor fit]",–
CCOC(=O)Cc1csc(NC(=O)CSc2nnnn2-c2ccc(C)c(C)c2)n1,"inconclusive: 11.2 µM [inhibitor, single point]",–
CN(C)c1cccc(C(=O)OC(C(=O)Nc2ccc(Cl)cc2C(F)(F)F)c2ccccc2)c1 (stereo not drawn),–,inconclusive: 15.1% [activator]
FC(F)(F)Oc1ccc(-c2cn3cccnc3n2)cc1,"inconclusive: 35.5 µM [activator, partial curve]",–
O=C(CCC(=O)Nc1ccc(F)cc1)N/N=C/c1ccccc1O,"inconclusive: 39.8 µM [activator, single point]",–

Compound,Potency,"activity change, negative = inhibition"
Cc1ccc(Cn2cccc(-c3nc4ccccc4s3)c2=O)cc1,"inconclusive: 28.2 µM [activator, partial curve]",–
Cc1nnc(SCC(=O)NC(=O)NCc2ccco2)n1Cc1ccccc1,"inconclusive: 56.2 µM [inhibitor, single point]",–
CC1SC(c2ccc(F)cc2)NC1=O (stereo not drawn),–,inconclusive: 15.5% [activator]
COC(=O)c1ccc(NC(=O)C(OC)c2ccccc2)cc1 (stereo not drawn),"inconclusive: 50.1 µM [inhibitor, partial curve]",–
COc1ccc2c(c1)c(=O)oc1cc(OCC(=O)N3CCCC(C)C3)ccc12 (stereo not drawn),"inconclusive: 35.5 µM [activator, partial curve]",–
O=C(CSc1cn(CCNC(=O)c2ccccc2)c2ccccc12)NCc1ccco1,"inconclusive: 12.6 µM [inhibitor, single point]",–
O=C(/C=C/c1ccccc1)NCC1(c2ccccc2)CCOCC1,–,inconclusive: -7.98% [inhibitor] [at 15.4 µM]
C=CCNc1nc(N)c(C(=C(C#N)C#N)c2ccccc2)s1,"inconclusive: 35.5 µM [activator, partial curve]",–
O=C(Nc1ccccc1)NC1CS(=O)(=O)CC1O (stereo not drawn),"inconclusive: 0.891 µM [inhibitor, single point]",–
CC12CCC(C(=O)N3CCCCCC3)(OC1=O)C2(C)C (stereo not drawn),"inconclusive: 6.31 µM [inhibitor, single point]",–
C=CCNC(=O)c1onc(CSc2ccccc2CC)c1C(=O)O,"inconclusive: 12.6 µM [inhibitor, single point]",–
O=C(Cn1nnc2ccccc21)OCC(=O)c1ccc(F)cc1,"inconclusive: 14.1 µM [inhibitor, partial curve, poor fit]",–
COC(=O)c1cc(=O)nc2sc(-c3ccc(F)cc3)nn12,"inconclusive: 14.1 µM [activator, partial curve]",–
CN1/C(=C\C(=S)NC(=O)c2ccc([N+](=O)[O-])cc2)C(C)(C)c2ccccc21,"inconclusive: 11.2 µM [inhibitor, partial curve, poor fit]",–
CCOC(=O)CSc1n[nH]c(-c2ccco2)n1,"inconclusive: 0.178 µM [inhibitor, full curve, poor fit]",–
O=C(c1cccc(C(=O)N2CCc3ccccc32)n1)N1CCc2ccccc21,"inconclusive: 50.1 µM [inhibitor, single point]",–
CCCn1c(SCC(=O)Nc2ccc(C(=O)Nc3ccccc3OC)cc2)n[nH]c1=O,"inconclusive: 50.1 µM [inhibitor, single point]",–
COc1ccc(C2c3ccc(O)cc3Oc3ncn(CCCO)c(=N)c32)cc1OC (stereo not drawn),"inconclusive: 35.5 µM [inhibitor, single point]",–
O=C(CCCn1c(=S)[nH]c2ccccc2c1=O)N1CCCCC1,"inconclusive: 28.2 µM [inhibitor, single point]",–
N#CC(C#N)=C1c2cc(S(N)(=O)=O)ccc2-c2ccc(S(N)(=O)=O)cc21,"inconclusive: 56.2 µM [activator, single point]",–
CC1=C(C(=O)OC2CCCCCCC2)C(c2cc3c(cc2Br)OCO3)CC(=O)N1 (stereo not drawn),"inconclusive: 5.01 µM [inhibitor, full curve]",–

Compound,Potency,"activity change, negative = inhibition"
O=C(c1cc2c(=O)n3ccccc3nc2s1)N1CCN(Cc2ccc3c(c2)OCO3)CC1,"inconclusive: 35.5 µM [activator, partial curve]",–
CC(C)n1c(NCCO)nc2ccccc21,–,inconclusive: 22.4% [activator]
CC1CCCCC1NC(=O)C1CCN(S(=O)(=O)N2CCCCCC2)CC1 (stereo not drawn),–,inconclusive: 1.58% [activator]
CCn1c(SCc2nnc(-c3ccccc3)o2)nnc1-c1ccc(S(=O)(=O)N2CCCC2)cc1,"inconclusive: 11.2 µM [inhibitor, single point]",–
COc1ccc(N2CC(O)=C(c3nc(-c4ccc(F)cc4)cs3)C2=N)cc1,"inconclusive: 11.2 µM [inhibitor, single point]",–
O=S(=O)(c1ccc2c(c1)OCCO2)N1CCC(O)(c2ccc(Cl)cc2)CC1,"inconclusive: 11.2 µM [inhibitor, full curve, poor fit]",–
O=C(NC1(C(F)(F)F)NC(=O)N(Cc2ccco2)C1=O)c1cccnc1 (stereo not drawn),"inconclusive: 50.1 µM [inhibitor, single point]",–
Cc1cccc(OCc2nnc(SCc3cc(=O)[nH]c4ccccc34)n2-c2ccccc2)c1,"inconclusive: 50.1 µM [inhibitor, single point]",–
Cc1ccccc1NC(=O)C1CCCN(S(=O)(=O)c2cccc3cccnc23)C1 (stereo not drawn),"inconclusive: 50.1 µM [inhibitor, single point]",–
Cc1ccc(C)c(NC(=O)CN(C)S(=O)(=O)c2ccc(F)cc2)c1,"inconclusive: 56.2 µM [inhibitor, single point]",–
CC1CN(S(=O)(=O)c2cccc(C(=O)OCc3cc(=O)oc4cc(O)ccc34)c2)CC(C)O1 (stereo not drawn),–,inconclusive: 15.9% [activator]
COc1ccc(C2=CSC3=C(C(=O)c4cccc(S(=O)(=O)N(C)C)c4)CCN23)cc1,"inconclusive: 12.6 µM [inhibitor, partial curve]",–
CCOc1ccc(NC2C=CS(=O)(=O)C2)cc1 (stereo not drawn),"inconclusive: 0.158 µM [inhibitor, full curve, poor fit]",–
O=C(c1ccccc1)c1c2c(cc3sc4ccccc4[n+]13)-c1cccc3cccc-2c13,"inconclusive: 56.2 µM [inhibitor, single point]",–
Cc1c(CN2CCCCC2)c(O)n(CCCO)c(=O)c1C#N,inactive,–
CC(C)(C)C(=O)/C=C/Nc1ccccc1O,inactive,–
Cc1c(NC(=S)Nc2ccc(Cl)cc2)c(=O)n(-c2ccccc2)n1C,–,inconclusive: 21.5% [activator]
COc1ccc2[nH]c(=O)c(C(c3nnnn3C(C)(C)C)N(Cc3ccco3)CC3CCCO3)cc2c1 (stereo not drawn),"inconclusive: 22.4 µM [activator, single point]",–
CCCn1ncc(CN2CCN(Cc3ccsc3)C(CCO)C2)c1C (stereo not drawn),"inconclusive: 50.1 µM [inhibitor, single point]",–
CCc1ccc(C(C(=O)NC2CCCCC2)N(C(=O)c2ccccn2)c2cccnc2)cc1 (stereo not drawn),–,inconclusive: 12.2% [activator]
CCN(CC)c1cc(C)c2cc(NC(=O)CNC(C)=O)ccc2n1,"inconclusive: 35.5 µM [activator, partial curve]",–

# Reference: PubChem BioAssay AID1466 (National Center for Advancing Translational Sciences (NCATS), 2008)
